Data reported in ChEMBL document CHEMBL4229566, “Discovery of ( S)-3-(3-(3,5-Dimethyl-1 H-pyrazol-1-yl)phenyl)-4-(( R)-3-(2-(5,6,7,8-tetrahydro-1,8-naphthyridin-2-yl)ethyl)pyrrolidin-1-yl)butanoic Acid, a Nonpeptidic αvβ6 Integrin Inhibitor for the Inhaled Treatment of Idiopathic Pulmonary Fibrosis” (J Med Chem, 2018).

Experiments:
[1] = physchem; details: buffer, pH 7.4, logD
[2] = Protein binding in rat plasma at 1 ug/ml after 4 hrs by rapid equilibrium dialysis and LC-MS/MS analysis; type: ADME, cell-free; details: at 1 µg/mL, read-out: PPB (converted)
[3] = in vitro; details: dog, MDCK-MDR1
[4] = physchem; details: buffer, pH 7
[5] = physchem; details: buffer, pH 6.9
[6] = physchem; details: buffer, pH 4
[7] = physchem; details: buffer, pH 7.5
[8] = physchem; details: buffer, pH 6.6

O=C(O)C[C@@H](CN1CC[C@@H](CCc2ccc3c(n2)NCCC3)C1)c1cccc(C2CC2)c1
logD [1]: 3.21

O=C(O)C[C@H](CN1CC[C@@H](CCc2ccc3c(n2)NCCC3)C1)c1cccc(C2CC2)c1
logD [1]: 3.34

O=C(O)C[C@H](CN1CC[C@@H](CCc2ccc3c(n2)NCCC3)C1)c1cccc(OC2CCOCC2)c1
logD [1]: 2.75

Cc1ccnn1-c1cccc([C@H](CC(=O)O)CN2CC[C@@H](CCc3ccc4c(n3)NCCC4)C2)c1
logD [1]: 2.55

Cc1cc(C)n(-c2cccc([C@H](CC(=O)O)CN3CC[C@@H](CCc4ccc5c(n4)NCCC5)C3)c2)n1 [GSK-3008348 FREE BASE]
fraction unbound at 4 h, 1 ug/ml [2]: 0.282
Papp A→B at 1 h, 3 µM [3]: 20 nm/s

Cc1cc(C)n(-c2cccc([C@H](CC(=O)O)CN3CC[C@@H](CCc4ccc5c(n4)NCCC5)C3)c2)n1.Cl [GSK-3008348]
solubility [4]: > 71 mg/mL
solubility [5]: > 34 mg/mL
solubility [6]: > 55 mg/mL
solubility [7]: 31 mg/mL
solubility [8]: > 55 mg/mL
